Results from article PMC6276216.
These are yes or no findings as the source states them, for the method shown. Binding seen in cells or lysates may run through a third protein. Some results given as binding are weak or reduced against the parent protein; the word gives no strength. Tags and fused reporters may be left off the sequences shown.

Target: T1, HaloTag-NPAS3 isoform 1 (human) (UniProt Q8IXF0)
T1 sequence: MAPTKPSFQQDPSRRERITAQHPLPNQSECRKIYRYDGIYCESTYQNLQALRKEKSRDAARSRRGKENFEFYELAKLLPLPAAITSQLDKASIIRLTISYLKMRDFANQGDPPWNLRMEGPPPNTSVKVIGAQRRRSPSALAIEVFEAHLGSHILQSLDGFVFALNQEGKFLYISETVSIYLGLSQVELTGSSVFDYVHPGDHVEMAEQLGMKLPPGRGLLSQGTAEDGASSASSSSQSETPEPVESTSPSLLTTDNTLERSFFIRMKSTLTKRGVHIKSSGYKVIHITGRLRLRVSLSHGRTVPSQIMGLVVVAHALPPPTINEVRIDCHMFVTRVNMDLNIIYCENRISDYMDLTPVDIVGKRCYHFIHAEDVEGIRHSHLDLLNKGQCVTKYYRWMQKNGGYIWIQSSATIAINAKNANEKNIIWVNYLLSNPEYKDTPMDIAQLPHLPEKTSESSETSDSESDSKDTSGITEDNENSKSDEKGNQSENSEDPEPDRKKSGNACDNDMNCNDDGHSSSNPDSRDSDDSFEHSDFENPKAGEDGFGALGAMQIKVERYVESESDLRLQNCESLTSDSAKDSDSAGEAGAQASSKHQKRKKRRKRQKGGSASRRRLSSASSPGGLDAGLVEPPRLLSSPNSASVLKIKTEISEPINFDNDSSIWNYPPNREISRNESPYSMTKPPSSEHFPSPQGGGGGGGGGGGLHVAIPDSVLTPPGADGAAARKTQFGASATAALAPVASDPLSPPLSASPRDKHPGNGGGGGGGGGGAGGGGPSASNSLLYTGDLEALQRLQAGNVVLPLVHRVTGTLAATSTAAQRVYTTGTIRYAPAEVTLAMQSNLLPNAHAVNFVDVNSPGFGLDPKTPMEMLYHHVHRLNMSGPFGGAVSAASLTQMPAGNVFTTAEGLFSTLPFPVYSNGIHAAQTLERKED
Assay: pull-down; HaloTag Mammalian Pull-Down (Promega), reciprocal: HaloTag-NPAS3 covalently linked to the resin, ARNT as prey (co-expressed untagged isoform 1 or endogenous); lysates of transfected HEK 293T cells; western blot

binding: binds
Substance: ARNT isoform 1, untagged (from UniProt P27540-1 1-789)
